Source: article PMC3255987 (The Journal of Cell Biology, 2012)

Target: recombinant Cyclin A2 (mouse, UniProt P51943)
Assay: pull-down

B1: GST-RhoAWT (natural protein)
chain: not shown
B1: binds.
